Data as given in PubChem BioAssay (Tox21).
Several values for one entry are separate records, joined by “and”; a condition that tells them apart may be missing. Identical values can stand only once. The inconclusive results got no clear call from the source; some entries with a clear call stand among them for comparison. Where the call is inconclusive, the potency comes from a doubtful curve fit. Activity calls are given as the source filed them. The call rests on the fitted dose curve; in most records, active means well fitted curve in the direction sought with a large enough effect in the repeat runs; inconclusive means weak or mixed curves; inactive means no such curve, though single readings can be large; an effect the other way counts as inactive or inconclusive.

Legend:
[1] = A CellTox Green Cytotoxicity Assay to monitor cytotoxicity in HEK293 cells - 40 hour (AID 1224871); conditions: CellTox Green fluorescence; series mostly up to 76.8 µM; further: nearly all actives have a fitted effect of over 45% in size
Procedure, shortened: (§1)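 Fluorescence intensity, read at 0, 8, 16, 24, 32 and 40 h of compound treatment, reflected dye binding to DNA of dead HEK293 cells; compounds (23 nL, DMSO) were added 5 h after plating cells with reagent.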

[2] = qHTS RealTime-Glo MT Cell Viability Assay in HEK293 cells - 16 hour (AID 1224872); conditions: RealTime-Glo luminescence; series mostly up to 76.8 µM; further: nearly all actives have a fitted effect of over 50% in size
Procedure, shortened: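 Viability tracked continuously by luminescence as live cells reduce a prosubstrate for NanoLuc; HEK293 cells preincubated 5 h, compound-treated at 37 C, and read at 0, 8, 16, 24, 32 and 40 h.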

[3] = A CellTox Green Cytotoxicity Assay to monitor cytotoxicity in HEK293 cells - 24 hour (AID 1224875); conditions: CellTox Green fluorescence; series mostly up to 76.8 µM; further: nearly all actives have a fitted effect of over 45% in size
Procedure, shortened: as §1

[4] = qHTS RealTime-Glo MT Cell Viability Assay in HEK293 cells - 40 hour (AID 1224874); conditions: RealTime-Glo luminescence; max response: hits give low values; further: nearly all actives have a fitted effect of over 50% in size; on max response: on the % scale 0 is the no-effect control and ±100 the full control effect
Procedure, shortened: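 Viable HEK293 cells reduce a cell-permeant prosubstrate; the product diffuses out and is consumed by NanoLuc in the medium to give light. Compounds went in after a 5 h incubation and plates were read over the treatment course.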

[5] = A CellTox Green Cytotoxicity Assay to monitor cytotoxicity in HepG2 cells - 16 hour (AID 1224876); conditions: CellTox Green fluorescence; series mostly up to 76.8 µM; further: nearly all actives have a fitted effect of over 45% in size
Procedure, shortened: (§2)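 Using 1536-well format, dye-containing HepG2 suspension was seeded, allowed 5 h at 37 C/5% CO2, dosed by pintool with compounds, positive and negative controls, and imaged for fluorescence across 40 h.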

[6] = A CellTox Green Cytotoxicity Assay to monitor cytotoxicity in HepG2 cells - 24 hour (AID 1224878); conditions: CellTox Green fluorescence; series mostly up to 76.8 µM; further: nearly all actives have a fitted effect of over 45% in size
Procedure, shortened: as §2

[7] = A CellTox Green Cytotoxicity Assay to monitor cytotoxicity in HepG2 cells - 40 hour (AID 1224879); conditions: CellTox Green fluorescence; series mostly up to 76.8 µM; further: nearly all actives have a fitted effect of over 40% in size
Procedure, shortened: as §2

[8] = qHTS RealTime-Glo MT Cell Viability Assay in HepG2 cells - 8 hour (AID 1224873); conditions: RealTime-Glo luminescence; series mostly up to 76.8 µM; further: nearly all actives have a fitted effect of over 55% in size
Procedure, shortened: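 HepG2 cells mixed with RealTime-Glo MT reagents (NanoLuc plus cell-permeant prosubstrate) were seeded at 600 cells/well, incubated 5 h at 37 C/5% CO2, then pinned with compounds in DMSO; nonlytic luminescence tracked viability during 40 h treatment.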

[9] = qHTS RealTime-Glo MT Cell Viability Assay in HepG2 cells - 32 hour (AID 1224877); conditions: RealTime-Glo luminescence; series mostly up to 76.8 µM; further: nearly all actives have a fitted effect of over 55% in size
Procedure, shortened: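 Viability was tracked continuously by NanoLuc luminescence from prosubstrate reduced by living HepG2 cells, at successive time points over 40 h of compound exposure. Cells with reagent were preincubated 5 h at 37 °C before compound addition.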
Potency means the concentration at half of the fitted maximal effect; tags describe the fitted curve by direction and shape.

CC(C)CC(C)(C)C
inconclusive: Potency [1] 22.7 µM [activator, single point] | Potency [2] 57 µM [cytotoxic, single point] | Potency [3] 22.7 µM [activator, single point]

CCCCc1cc2ccccc2c(OCCN(C)C)n1
inconclusive: Potency [2] 23.9 µM [cytotoxic, single point] | Potency [4] 23.9 µM [cytotoxic, single point] | Potency [3] 19 µM [activator, single point] | Potency [5] 26.8 µM [activator, single point] | Potency [6] 26.8 µM [activator, single point] | Potency [7] 26.8 µM [activator, single point]
active: Potency [1] 21.3 µM

Cc1ccc2ccc3cccc4ccc1c2c34
inconclusive: Potency [1] 48.9 µM [activator, partial curve, poor fit] | Potency [4] 43.6 µM [cytotoxic, partial curve, poor fit]

C(=C/c1ccccc1)/c1ccccc1
inactive: max response [4] -13.3%
inconclusive: Potency [1] 55.9 µM [activator, single point] | Potency [3] 62.7 µM [activator, partial curve, poor fit]

CCCCC(CC)COC(C)=O (centres undefined)
inactive: Potency [1] | max response [4] 1.23% and 1.38%

O=C1Nc2ccc(Cl)cc2[C@@](C#CC2CC2)(C(F)(F)F)O1
inconclusive: Potency [1] 26.8 µM [activator, single point] | Potency [8] 26.8 µM [falling, single point] | Potency [3] 26.8 µM [activator, single point] | Potency [5] 26.8 µM [activator, single point] | Potency [9] 26.8 µM [cytotoxic, partial curve, poor fit] | Potency [6] 26.8 µM [activator, single point] | Potency [7] 26.8 µM [activator, single point]
